According to PubChem BioAssay AID504332 (National Center for Advancing Translational Sciences (NCATS), 2011):
“And” between values parts separate entries of the source, which are not always exact repeats. Equal entries are not always repeated. The campaign covered roughly 350,000 compounds. About 31,000 (8.9%) were called active. Inconclusive results, whose numbers are uncertain, are shown with a selection of clear calls. Calls follow the shape of the dose curve; as a rule, active = well fitted inhibition curve with a large enough effect; inconclusive = small, poorly fitted or top-dose-only effect; inactive = no such curve, though single readings can be large or run the other way. Potencies beside an inconclusive call are fits to weak or partial responses and may not hold up.

Each compound was assayed against Histone-lysine N-methyltransferase EHMT2 (Homo sapiens) (UniProt Q96KQ7) (assay: qHTS Assay for Inhibitors of Histone Lysine Methyltransferase G9a). Details: G9a H3K9 monomethylation, AlphaScreen, 2 h; activity, negative = inhibition: at 59 µM (top of the series) unless noted.
How it was run: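 AlphaScreen read-out: biotin-H3K9 peptide (500 nM) methylation by 20 nM enzyme with 20 uM SAM, 2 h at room temperature after 15 min compound preincubation; anti-monomethyl H3K9 antibody plus donor/acceptor beads, 10 min dark.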
% is scaled to controls: 0 for no effect and ±100 for the full control effect; potency is read from the fitted curve at half-maximal effect; tags tell the direction and shape of the fitted curve.
Also: nearly all actives have a fitted effect of over 75% in size.

UniProt Q96KQ7, sequence (Q96KQ7 whole entry, looked up): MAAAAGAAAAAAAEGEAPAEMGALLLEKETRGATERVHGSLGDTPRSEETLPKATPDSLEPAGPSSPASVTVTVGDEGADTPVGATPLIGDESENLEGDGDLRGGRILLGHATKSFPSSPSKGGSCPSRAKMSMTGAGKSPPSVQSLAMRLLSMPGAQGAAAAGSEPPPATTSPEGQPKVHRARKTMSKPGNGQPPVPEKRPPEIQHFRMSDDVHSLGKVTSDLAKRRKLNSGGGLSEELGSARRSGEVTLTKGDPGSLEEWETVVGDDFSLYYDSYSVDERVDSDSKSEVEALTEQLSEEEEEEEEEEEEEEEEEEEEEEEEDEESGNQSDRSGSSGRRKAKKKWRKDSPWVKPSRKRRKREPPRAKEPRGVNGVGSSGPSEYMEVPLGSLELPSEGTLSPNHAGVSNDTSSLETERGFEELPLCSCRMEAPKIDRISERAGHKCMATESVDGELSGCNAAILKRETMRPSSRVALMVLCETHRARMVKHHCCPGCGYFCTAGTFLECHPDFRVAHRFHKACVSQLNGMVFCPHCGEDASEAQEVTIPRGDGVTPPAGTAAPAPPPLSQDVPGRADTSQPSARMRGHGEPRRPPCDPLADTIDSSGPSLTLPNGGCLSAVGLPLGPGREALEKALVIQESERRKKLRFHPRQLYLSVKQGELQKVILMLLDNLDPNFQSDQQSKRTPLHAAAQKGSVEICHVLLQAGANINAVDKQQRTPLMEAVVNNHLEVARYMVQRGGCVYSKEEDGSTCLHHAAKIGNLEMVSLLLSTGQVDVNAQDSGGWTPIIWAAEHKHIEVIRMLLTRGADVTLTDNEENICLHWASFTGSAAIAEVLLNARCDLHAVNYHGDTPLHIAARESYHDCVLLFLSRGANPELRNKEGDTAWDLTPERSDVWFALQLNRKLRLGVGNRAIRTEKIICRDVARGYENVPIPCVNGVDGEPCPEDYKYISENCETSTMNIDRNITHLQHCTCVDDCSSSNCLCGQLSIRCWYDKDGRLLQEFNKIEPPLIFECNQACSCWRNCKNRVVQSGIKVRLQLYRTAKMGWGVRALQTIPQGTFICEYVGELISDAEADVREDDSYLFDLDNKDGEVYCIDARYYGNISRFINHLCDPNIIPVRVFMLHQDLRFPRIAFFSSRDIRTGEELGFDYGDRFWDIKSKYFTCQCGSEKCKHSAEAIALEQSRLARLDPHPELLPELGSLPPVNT

SMILES | Potency | activity, negative = inhibition
O=C(CCCN1CCC2(CC1)C(=O)N(Cc1cccc(F)c1)CN2c1ccccc1)c1ccc(F)cc1 | inconclusive: 25.1 µM [inhibitor, single point] | –
CCOC(=O)c1ccc(-n2c(N)c(C(=O)NCC3CCCO3)sc2=S)cc1 (configuration not stated) | active: 10 µM | –
CC(C)(C)c1ccc(C(=O)C2CCCN(Cc3ccon3)C2)cc1 (configuration not stated) | inconclusive: 8.91 µM [inhibitor, partial curve, poor fit] | –
COc1cc(-c2ccc(-[n+]3nc(-c4ccccc4)nn3-c3ccc([N+](=O)[O-])cc3)c(OC)c2)ccc1-[n+]1nc(-c2ccccc2)nn1-c1ccc([N+](=O)[O-])cc1 | inconclusive: 2 µM [inhibitor, partial curve, poor fit] | –
Clc1ccccc1CNC1CN2CCC1CC2 (configuration not stated) | inconclusive: 15.8 µM [inhibitor, single point] | –
CCC(C)N=Cc1c(O)n(-c2ccccc2)c(=O)[nH]c1=O (configuration not stated) | active: 10 µM | –
CN1CCN(c2ccc3nccnc3c2)CC1 | inconclusive: 79.4 µM [inhibitor, partial curve, poor fit] | –
O=c1[nH]c2ccccc2s1 | inconclusive: 1.78 µM [inhibitor, partial curve, poor fit] | –
CCCCCn1c(=O)c(C(=O)Nc2ccccc2N)c(O)c2ccccc21 | inactive | –
COc1ccc(N2C(=O)/C(=C/c3ccc(N(C)C)o3)C(=O)NC2=S)cc1 | active: 44.7 µM | –
CCCNC(=O)N1[C@H]2CC[C@@H]1C(C(=O)OC)=C(c1ccc(F)cc1F)C2 | – | inactive: -0.168% [at 0.501 µM]
CCOc1cccc(OCCOCCN2CCCC2)c1 | inconclusive: 6.31 µM [inhibitor, single point] | –
CN1CCN(c2nc3ccccc3c(=O)n2-c2ccccc2)CC1 | inconclusive: 44.7 µM [inhibitor, partial curve] | –
O=C(CN1CC=C(c2ccccc2)CC1)NC(=O)NCc1ccco1 | inconclusive: 39.8 µM [inhibitor, single point] | –
CCn1cnc2c(Nc3cccc(Cl)c3)nc(N[C@@H]3CCCC[C@@H]3N)nc21 | – | inactive: 11.3% [at 12.7 µM]
CCN1CCN(c2ccc(N)cc2)CC1 | active: 39.8 µM | –
Oc1ccc(C2NCc3ccccc3-n3cccc32)cc1Cl (configuration not stated) | inconclusive: 89.1 µM [inhibitor, single point] | inconclusive: -69.3% [inhibitor]
CN1CCN(c2ccc3ccccc3n2)CC1 | inconclusive: 56.2 µM [inhibitor, partial curve] | –
Nc1c(C(=O)NCc2ccco2)c2nc3ccccc3nc2n1Cc1ccccc1 | inconclusive: 89.1 µM [inhibitor, single point] | –
CCOC(=O)c1c(/N=C/c2c(O)n(-c3cccc(C)c3)c(=O)[nH]c2=O)sc2c1CCCC2 | inconclusive: 8.91 µM [inhibitor, partial curve, poor fit] | –
Cc1ccc2c(c1)C1CN(C)CCC1N2S(=O)(=O)c1ccccc1 (configuration not stated) | inconclusive: 50.1 µM [inhibitor, partial curve, poor fit] | –
CC(=O)OC1CC2C(C)(C)C(=O)C=C[C@]2(C)C2CC[C@]3(C)C(=CC(=O)OC3c3ccoc3)[C@]12C (some centres not stated) | – | inactive: -25.1% [at 2.33 µM]

SMILES | Potency | activity, negative = inhibition
O=C1CC(N2CCC(n3c(=O)[nH]c4ccccc43)CC2)C(=O)N1Cc1ccccc1 (configuration not stated) | inconclusive: 1.58 µM [inhibitor, partial curve, poor fit] | –
CCOc1cccc(CNCCc2c(C)[nH]c3ccc(OC(F)(F)F)cc23)c1O | active: 10 µM | –
O=C(Cn1nc(Cc2cccnc2)c2ccccc2c1=O)N1CCC2(CC1)OCCO2 | inconclusive: 2.51 µM [inhibitor, partial curve, poor fit] | –
Cc1cccc(NC(=O)Cn2cc(C(=O)c3ccccc3)c3ccccc32)c1C | inactive | –
O=P1(NCCCn2cc[n+](Cc3nc4ccccc4[nH]3)c2)C=C(c2ccccc2)OC(c2ccccc2)=C1 | inconclusive: 79.4 µM [inhibitor, single point] | –
CN(C)CP(=O)(O)CN(C)C=O | inconclusive: 89.1 µM [inhibitor, single point] | –
CCCOP(=O)(OCCC)C(Nc1ccc(C(C)C)cc1)c1ccc([N+](=O)[O-])cc1 (configuration not stated) | inconclusive: 20 µM [inhibitor, partial curve, poor fit] | –
O=c1[nH]c(O)c(C=Nc2cc(F)cc(F)c2)c(=O)[nH]1 | inconclusive: 89.1 µM [inhibitor, single point] | –
CCCOc1ccc(N2C(=O)CC(N3CC=C(c4ccccc4)CC3)C2=O)cc1 (configuration not stated) | inconclusive: 35.5 µM [inhibitor, full curve, poor fit] | –
CCC(C=C[C@@H]1OC(=O)C=C[C@H]1C)=C[C@H](C)CC=CC(C)=C[C@@H](C)C(=O)[C@@H](C)[C@H](O)[C@@H](C)CC(C)=CC(=O)O | inconclusive: 0.212 µM [inhibitor, single point] | –
Cc1ccc(-n2nc(C)c3c2NC(=O)CSC3c2ccc3c(c2)OCO3)cc1 (configuration not stated) | inconclusive: 39.8 µM [inhibitor, single point] | –
Nc1ccc([As](=O)(O)O)cc1 | inactive | –
C=CCN1C(=O)/C(=C/c2cccs2)C(=O)NC1=S | active: 8.91 µM | –
O=C(/C=C/c1ccc2c(c1)OCO2)c1c(O)n(CCc2ccccc2)c(=O)[nH]c1=O | inactive | –
NC(Cc1ccc(Oc2cc(I)c(O)c(I)c2)c(I)c1)C(=O)O (configuration not stated) | inconclusive: 2.82 µM [inhibitor, partial curve, poor fit] | –
c1ccc(CN2CCN(Cc3ccc4ccccc4c3)CC2)cc1 | active: 1.41 µM | –
Cc1ccc(S(=O)(=O)Cc2ccc(C(=O)N3CCC4(CC3)OCCO4)o2)cc1 | – | inconclusive: -56.7% [inhibitor]
COc1cc(/C=N/NC(=O)c2cnccn2)cc(OC)c1OC | inconclusive: 28.2 µM [inhibitor, single point] | –
CCc1ccc(N2NC(=O)/C(=C/C=C/c3ccco3)C2=O)cc1 | active: 8.91 µM | –
Cc1nnc(NC(=O)c2cccn(Cc3ccccc3F)c2=O)s1 | inconclusive: 39.8 µM [inhibitor, single point] | –
CCC(CO)NC(=O)[C@@H]1C=C2c3cccc4[nH]cc(c34)C[C@H]2N(C)C1 (some centres not stated) | – | inactive: 33% [at 12.7 µM]
CCOc1ccc(C2CC(c3c(O)n(C)c(=O)n(C)c3=O)=NN2)cc1 (configuration not stated) | inconclusive: 79.4 µM [inhibitor, single point] | –

SMILES | Potency | activity, negative = inhibition
CC1CCCN(CC(=O)N2CCCc3ccccc32)C1 (configuration not stated) | inactive | –
O=C1NC(=O)N(c2ccc(Br)cc2)C(=O)/C1=C/c1ccsc1 | active: 20 µM | –
NC1C=CC=C(C(=O)O)C1 (configuration not stated) | active: 3.16 µM | –
CCn1c(O)c(/C=N/N2CCOCC2)c(=O)n(CC)c1=S | inconclusive: 25.1 µM [inhibitor, single point] | –
Cc1ccc(-c2nnc(Nc3ccc(OC(F)(F)Cl)cc3)c3ccccc23)cc1S(=O)(=O)NC(C)(C)CO | inconclusive: 0.794 µM [inhibitor, full curve, poor fit] | –
CCCCCCCCC(=O)NCc1ccc(O)c(OC)c1 | inconclusive: 89.1 µM [inhibitor, single point] and inconclusive: 25.1 µM [inhibitor, single point] | –
CN1CCN(Cc2nc3ccccc3n2C)CC1 | inconclusive: 79.4 µM [inhibitor, partial curve, poor fit] | –
CCC12CN3CC(CC)(CN(C1)C3c1ccccn1)C2=O (configuration not stated) | active: 0.447 µM | –
O=C(C1CC(=O)N(C2CCCC2)C1)N1CCC2(CC1)OCCO2 (configuration not stated) | inconclusive: 89.1 µM [inhibitor, single point] | –
Fc1ccc(CNCCc2c[nH]c3ccccc23)cc1 | inconclusive: 79.4 µM [inhibitor, partial curve] | –
CCOC(=O)c1sc(/N=C/c2c(O)n(-c3ccccc3)c(=O)[nH]c2=O)c(C#N)c1C | inconclusive: 31.6 µM [inhibitor, single point] | –
O=P(N1CCCCC1)(N1CCCCC1)C(Cl)(Cl)Cl | inconclusive: 50.1 µM [inhibitor, partial curve] | –
Cc1cccc(C(=O)Nc2ccc(Cl)cc2C(=O)c2ccccc2)c1 | inactive | –
CCN(CC)c1ccc(N=Cc2c(O)[nH]c(=O)[nH]c2=O)cc1 | inconclusive: 20 µM [inhibitor, full curve] | –
CC(C)CNC(=O)c1c(N)n(Cc2ccco2)c2nc3ccccc3nc12 | active: 44.7 µM | –
CCN1CCN(CC(c2ccccc2)c2ccccc2)CC1 | inconclusive: 4.47 µM [inhibitor, partial curve, poor fit] | –
CCn1c(N)c(C(=O)NC)sc1=S | inconclusive: 1.41 µM [inhibitor, full curve, poor fit] | –
c1ccc2c(CCNCc3ccc4c(c3)OCO4)c[nH]c2c1 | inconclusive: 22.4 µM [inhibitor, single point] | –
CN1C(=O)C(=Cc2ccc(N3CCOCC3)o2)C(=O)N(C)C1=O | inconclusive: 31.6 µM [inhibitor, single point] | –
COC(=O)c1c(C)n(Cc2ccccc2)c2ccc(O)cc12 | active: 8.91 µM | –
O=C(CCNC(=O)N1C[C@H]2C[C@@H](C1)c1cccc(=O)n1C2)Nc1cccc(Cl)c1 | inconclusive: 6.31 µM [inhibitor, partial curve, poor fit] | –
COc1ccccc1CN1CCCCC1c1cccnc1 (configuration not stated) | inconclusive: 39.8 µM [inhibitor, single point] | –
